Experimental data: patent US20240076343A1
Values belong to the binder of their own block, whether it stands above or below them.

How the values were obtained:
Assay in all cases: cell-based or functional assay
[1] = molecular target: intermediate affinity hIL-2 receptor complex (IL-2Rβγ) (human) (UniProt P14784)
[2] = molecular target: high-affinity hIL-2 receptor (IL-2Rαβγ) (human) (UniProt P01589)
[3] = molecular target: high-affinity hIL-2 receptor (IL-2Rαβγ) on NK-92 cells (human) (UniProt P01589)
[4] = molecular target: intermediate affinity hIL-2 receptor complex (IL-2Rβγ) on TF1+IL-2Rβ cells (human) (UniProt P14784)
[5] = molecular target: intermediate affinity hIL-2 receptor (hIL-2Rβγ) on TF1+IL-2Rβ cells (human) (UniProt P14784)

- Agonistic Activity (TF1 + IL-2Rβ), pSTAT5 titration [1]: 60%
- Fold change from rhIL-2 (TF1 + IL-2Rβ), pSTAT5 titration [1]: 205 fold
- Agonistic Activity (NK-92), pSTAT5 titration [2]: 70%
- Fold change from rhIL-2 (NK-92), pSTAT5 titration [2]: 7950 fold
- Agonistic Activity (NK-92) [3]: 20%
- Fold change from hIL-2 (NK-92) [3]: 22 fold
- Fold change from rhIL-2 (NK-92) [3]: > 10000 fold
- Fold change from hIL-2 (TF1 + IL-2Rβ) [4]: 6 fold
- Agonistic Activity (TF1 + IL-2Rβ) [5]: 60%
- Fold change from rhIL-2 (TF1 + IL-2Rβ) [5]: 383 fold
B1: 1H3-hIgG1-L6-hIL-2 (D20A/E95A/Y45K) (protein)
heavy: EVQLVESGGGLVQPGRSLKLSCAVSGFTFSDYAMAWVRQAPKKGLEWVATISYDGSRTYYRDSVKGRFTISRDNAKITLYLQMDSLRSEDTATYYCARHGSGYFDYWGQGVMVTVSS[not shown - human IgG1 constant region]SGGGGSAPTSSSTKKTQLQLEHLLLALQMILNGINNYKNPKLTRMLTFKFKMPKKATELKHLQCLEEELKPLEEVLNLAQSKNFHLRPRDLISNINVIVLALKGSETTFMCEYADETATIVEFLNRWITFCQSIISTLT
light: DTVLTQSPALAVSPGERVTISCRASESVRTGVHWYQQKPGQQPKLLIYGASNLESGVPARFSGSGSGTDFTLTIDPVEADDTATYFCQQSWNDPFTFGSGTKLEIKRTVAAPSVFIFPPSDEQLKSGTASVVCLLNNFYPREAKVQWKVDNALQSGNSQESVTEQDSKDSTYSLSSTLTLSKADYEKHKVYACEVTHQGLSSPVTKSFNRGEC

- Agonistic Activity (TF1 + IL-2Rβ), pSTAT5 titration [1]: 10%
- Fold change from rhIL-2 (TF1 + IL-2Rβ), pSTAT5 titration [1]: > 10000 fold
- Agonistic Activity (NK-92), pSTAT5 titration [2]: 5%
- Fold change from rhIL-2 (NK-92), pSTAT5 titration [2]: > 10000 fold
- Fold change from hIL-2 (NK-92) [3]: 25 fold
- Fold change from rhIL-2 (NK-92) [3]: > 10000 fold
- Fold change from hIL-2 (TF1 + IL-2Rβ) [4]: 17 fold
- Fold change from rhIL-2 (TF1 + IL-2Rβ) [5]: > 10000 fold
B2: 1H3-hIgG1-L6-hIL-2 (D20A/E95A/E62R) (protein)
heavy: EVQLVESGGGLVQPGRSLKLSCAVSGFTFSDYAMAWVRQAPKKGLEWVATISYDGSRTYYRDSVKGRFTISRDNAKITLYLQMDSLRSEDTATYYCARHGSGYFDYWGQGVMVTVSS[not shown - human IgG1 constant region]SGGGGSAPTSSSTKKTQLQLEHLLLALQMILNGINNYKNPKLTRMLTFKFYMPKKATELKHLQCLEERLKPLEEVLNLAQSKNFHLRPRDLISNINVIVLALKGSETTFMCEYADETATIVEFLNRWITFCQSIISTLT
light: B1 light

- Agonistic Activity (TF1 + IL-2Rβ), pSTAT5 titration [1]: 60 to 70%
- Agonistic Activity (NK-92), pSTAT5 titration [2]: 70%
- Fold change from rhIL-2 (NK-92), pSTAT5 titration [2]: > 10000 fold
- Fold change from hIL-2 (NK-92) [3]: 21 fold
- Fold change from rhIL-2 (NK-92) [3]: 5420 fold
- Fold change from hIL-2 (TF1 + IL-2Rβ) [4]: 6 fold
- Agonistic Activity (TF1 + IL-2Rβ) [5]: 90%
- Fold change from rhIL-2 (TF1 + IL-2Rβ) [5]: 125 fold
B3: 1H3-hIgG1-L6-hIL-2 (D20A/E95A/L72D) (protein)
heavy: EVQLVESGGGLVQPGRSLKLSCAVSGFTFSDYAMAWVRQAPKKGLEWVATISYDGSRTYYRDSVKGRFTISRDNAKITLYLQMDSLRSEDTATYYCARHGSGYFDYWGQGVMVTVSS[not shown - human IgG1 constant region]SGGGGSAPTSSSTKKTQLQLEHLLLALQMILNGINNYKNPKLTRMLTFKFYMPKKATELKHLQCLEEELKPLEEVLNDAQSKNFHLRPRDLISNINVIVLALKGSETTFMCEYADETATIVEFLNRWITFCQSIISTLT
light: B1 light

- Agonistic Activity (TF1 + IL-2Rβ), pSTAT5 titration [1]: 40%
- Fold change from rhIL-2 (TF1 + IL-2Rβ), pSTAT5 titration [1]: 172 fold
- Agonistic Activity (NK-92), pSTAT5 titration [2]: 80%
- Fold change from rhIL-2 (NK-92), pSTAT5 titration [2]: 187 fold
- Fold change from hIL-2 (NK-92) [3]: 7 fold
- Fold change from rhIL-2 (NK-92) [3]: 15 fold
- Fold change from hIL-2 (TF1 + IL-2Rβ) [4]: 9 fold
- Agonistic Activity (TF1 + IL-2Rβ) [5]: 60%
- Fold change from rhIL-2 (TF1 + IL-2Rβ) [5]: 972 fold
B4: 1H3-hIgG1-L6-hIL-2 (D20A/E95A/E68L) (protein)
heavy: EVQLVESGGGLVQPGRSLKLSCAVSGFTFSDYAMAWVRQAPKKGLEWVATISYDGSRTYYRDSVKGRFTISRDNAKITLYLQMDSLRSEDTATYYCARHGSGYFDYWGQGVMVTVSS[not shown - human IgG1 constant region]SGGGGSAPTSSSTKKTQLQLEHLLLALQMILNGINNYKNPKLTRMLTFKFYMPKKATELKHLQCLEEELKPLELVLNLAQSKNFHLRPRDLISNINVIVLALKGSETTFMCEYADETATIVEFLNRWITFCQSIISTLT
light: B1 light

- Agonistic Activity (TF1 + IL-2Rβ), pSTAT5 titration [1]: 60%
- Fold change from rhIL-2 (TF1 + IL-2Rβ), pSTAT5 titration [1]: 195 fold
- Agonistic Activity (NK-92), pSTAT5 titration [2]: 80%
- Fold change from rhIL-2 (NK-92), pSTAT5 titration [2]: 367 fold
- Agonistic Activity (NK-92) [3]: 80%
- Fold change from hIL-2 (NK-92) [3]: 10 fold
- Fold change from rhIL-2 (NK-92) [3]: 306 fold
- Fold change from hIL-2 (TF1 + IL-2Rβ) [4]: 6 fold
- Agonistic Activity (TF1 + IL-2Rβ) [5]: 80%
- Fold change from rhIL-2 (TF1 + IL-2Rβ) [5]: 702 fold
B5: 1H3-hIgG1-L6-hIL-2 (D20A/E95A/E61A) (protein)
heavy: EVQLVESGGGLVQPGRSLKLSCAVSGFTFSDYAMAWVRQAPKKGLEWVATISYDGSRTYYRDSVKGRFTISRDNAKITLYLQMDSLRSEDTATYYCARHGSGYFDYWGQGVMVTVSS[not shown - human IgG1 constant region]SGGGGSAPTSSSTKKTQLQLEHLLLALQMILNGINNYKNPKLTRMLTFKFYMPKKATELKHLQCLEAELKPLEEVLNLAQSKNFHLRPRDLISNINVIVLALKGSETTFMCEYADETATIVEFLNRWITFCQSIISTLT
light: B1 light

- Agonistic Activity (TF1 + IL-2Rβ), pSTAT5 titration [1]: 50%
- Fold change from rhIL-2 (TF1 + IL-2Rβ), pSTAT5 titration [1]: 230 fold
- Agonistic Activity (NK-92), pSTAT5 titration [2]: 70%
- Fold change from rhIL-2 (NK-92), pSTAT5 titration [2]: 3260 fold
- Agonistic Activity (NK-92) [3]: 20%
- Fold change from hIL-2 (NK-92) [3]: 23 fold
- Fold change from rhIL-2 (NK-92) [3]: > 10000 fold
- Fold change from hIL-2 (TF1 + IL-2Rβ) [4]: 6 fold
- Agonistic Activity (TF1 + IL-2Rβ) [5]: 60%
- Fold change from rhIL-2 (TF1 + IL-2Rβ) [5]: 661 fold
B6: 1H3-hIgG1-L6-hIL-2 (D20A/E95A/E62A) (protein)
heavy: EVQLVESGGGLVQPGRSLKLSCAVSGFTFSDYAMAWVRQAPKKGLEWVATISYDGSRTYYRDSVKGRFTISRDNAKITLYLQMDSLRSEDTATYYCARHGSGYFDYWGQGVMVTVSS[not shown - human IgG1 constant region]SGGGGSAPTSSSTKKTQLQLEHLLLALQMILNGINNYKNPKLTRMLTFKFYMPKKATELKHLQCLEEALKPLEEVLNLAQSKNFHLRPRDLISNINVIVLALKGSETTFMCEYADETATIVEFLNRWITFCQSIISTLT
light: B1 light

- Agonistic Activity (TF1 + IL-2Rβ), pSTAT5 titration [1]: 60%
- Fold change from rhIL-2 (TF1 + IL-2Rβ), pSTAT5 titration [1]: 293 fold
- Agonistic Activity (NK-92), pSTAT5 titration [2]: 80%
- Fold change from rhIL-2 (NK-92), pSTAT5 titration [2]: > 10000 fold
- Fold change from hIL-2 (NK-92) [3]: 25 fold
- Fold change from rhIL-2 (NK-92) [3]: > 10000 fold
- Fold change from hIL-2 (TF1 + IL-2Rβ) [4]: 6 fold
- Agonistic Activity (TF1 + IL-2Rβ) [5]: 50%
- Fold change from rhIL-2 (TF1 + IL-2Rβ) [5]: 57 fold
B7: 1H3-hIgG1-L6-hIL-2 (D20A/E95A/Y45R) (protein)
heavy: EVQLVESGGGLVQPGRSLKLSCAVSGFTFSDYAMAWVRQAPKKGLEWVATISYDGSRTYYRDSVKGRFTISRDNAKITLYLQMDSLRSEDTATYYCARHGSGYFDYWGQGVMVTVSS[not shown - human IgG1 constant region]SGGGGSAPTSSSTKKTQLQLEHLLLALQMILNGINNYKNPKLTRMLTFKFRMPKKATELKHLQCLEEELKPLEEVLNLAQSKNFHLRPRDLISNINVIVLALKGSETTFMCEYADETATIVEFLNRWITFCQSIISTLT
light: B1 light
